Data reported in PMC8138772 (The Journal of Biological Chemistry, 2021).

What was measured:
[1] = normal mouse serum, 0, 2, 4 and 6 h at 37 °C, MALDI-TOF MS, Fig. S1
[2] = normal mouse serum, within a 4 h incubation at 37 °C; cited from earlier work

SMILES: CC(C)C[C@@H]1NC(=O)[C@H](CC(=O)O)NC(=O)CNC(=O)[C@H](CCCNC(=N)N)NC(=O)[C@H](CC(C)C)NC(=O)[C@H](CC(N)=O)NC(=O)[C@@H]2CCCN2C(=O)[C@H](C(C)C)NC(=O)[C@H](C)NC(=O)[C@@H](NC(=O)CCCC[C@@H]2SC[C@@H]3NC(=O)N[C@@H]32)CSSC[C@@H](C(=O)N[C@@H](CCCNC(=N)N)C(=O)N[C@H](C(=O)N[C@@H](CCCCN)C(N)=O)[C@@H](C)O)NC(=O)[C@H](C(C)C)NC(=O)[C@H](CCCCN)NC(=O)[C@H](CCC(N)=O)NC(=O)[C@H](C)NC(=O)[C@H](CC(C)C)NC(=O)[C@H](C(C)C)NC(=O)[C@H](CCC(N)=O)NC1=O [C1C18 S–S]
- serum degradation (in words) [1]: faster degradation to the 385 Da smaller product compared with C1C18 DFBP

SMILES: CC(C)C[C@H](NC(=O)[C@H](CC(=O)O)NC(=O)CNC(=O)[C@H](CCCNC(=N)N)NC(=O)[C@H](CC(C)C)NC(=O)[C@H](CC(N)=O)NC(=O)[C@@H]1CCCN1C(=O)[C@@H](NC(=O)[C@H](C)NC(=O)[C@H](CC(N)=O)NC(=O)CCCC[C@@H]1SC[C@@H]2NC(=O)N[C@@H]21)C(C)C)C(=O)N[C@@H](CCC(N)=O)C(=O)N[C@H](C(=O)N[C@@H](CC(C)C)C(=O)N[C@@H](C)C(=O)N[C@@H](CCC(N)=O)C(=O)N[C@@H](CCCCN)C(=O)N[C@H](C(=O)N[C@@H](C)C(=O)N[C@@H](CCCNC(=N)N)C(=O)N[C@H](C(=O)N[C@@H](CCCCN)C(N)=O)[C@@H](C)O)C(C)C)C(C)C [A20FMDV2]
- peptide degraded in serum [2]: over 50%
